{"source": "paper PMC11651300", "binders": {"B1": {"name": "Avidin from hen egg-white, P02701 25-152 (natural protein)", "chain": "ARKCSLTGKWTNDLGSNMTIGAVNSRGEFTGTYITAVTATSNEIKESPLHGTQNTINKRTQPTFGFTVNWKFSESTTVFTGQCFIDRNGKEVLKTMWLLRSSVNDIGDDWKATRVGINIFTRLRTQKE", "modifications": "here or on the partner: heavily glycosylated (multiple glycoforms present); heavily glycosylated (multiple glycoforms present)"}}, "molecular_target": "T1, Avidin from hen egg-white (hen (egg-white)), P02701", "T1 chain": "B1 chain", "test": "native MS", "conditions": "remark: other sources report otherwise", "data": [{"binder": "B1", "values": [{"measurement": "stoichiometry N", "value": 4}]}]}
